Assay results reported in the supplement of paper PMC4166925.
± gives the standard deviation of the averaged measurements. The full ranking holds about 33,000 sequences; the median of “E-score (dimensionless, -0.5 to 0.5)” is about -0.049, and the highest 2% start at about 0.37. This is one part of the list.

Each sequence was assayed on T1, PmTbr T-box DNA-binding domain (GST fusion) (assay: PBM E-score of 8-mer (E-score (dimensionless, -0.5 to 0.5)); Tbr is Tbrain of the sea star Patiria miniata (Pm) or the sea urchin Strongylocentrotus purpuratus (Sp); higher = stronger binding preference; most listed sequences are background and not binding sites). Settings: the construct has about 5 more residues each side.
T1 sequence: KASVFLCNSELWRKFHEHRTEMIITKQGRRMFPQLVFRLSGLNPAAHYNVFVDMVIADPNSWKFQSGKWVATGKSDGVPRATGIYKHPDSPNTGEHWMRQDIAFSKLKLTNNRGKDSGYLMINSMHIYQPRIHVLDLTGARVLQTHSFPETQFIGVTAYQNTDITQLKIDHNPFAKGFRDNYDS
Method: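 Universal protein-binding microarray (Agilent AMADID 016060, 60-bp probes with a 35-bp variable region) incubated with 200 nM GST-fused Patiria miniata Tbr T-box DNA-binding domain (residues 272-466) in PBS pH 7.5. Scored for every ungapped 8-mer (given with its reverse complement) by the Universal PBM Analysis Suite as E-score (modified Wilcoxon-Mann-Whitney enrichment, range -0.5 to 0.5; >0.45 counts as bound) and Z-score of median probe intensity. Two replicate arrays (datasets 1 and 2).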
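Note: 200 nM protein in PBS on universal arrays averaged over duplicate arrays.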

| Sequence | PBM E-score of 8-mer |
| --- | --- |
| GGGATTTA | -0.232 ± 0.046 |
| ACCATCAT | -0.213 ± 0.011 |
| GTTAAATA | 0.103 ± 0.08 |
| GAACGGCA | -0.0886 ± 0.042 |
| CAGCACGA | 0.0849 ± 0.056 |
| CACGTAAC | 0.0224 ± 0.068 |
| GCCGCTAC | 0.0172 ± 0.041 |
| AGTATGTG | 0.126 ± 0.022 |
| TCTTTGAA | -0.0798 ± 0.067 |
| CACTATCA | 0.332 ± 0.0052 |
| GAACAAAA | -0.0691 ± 0.11 |
| CAGTTCAA | -0.312 ± 0.0068 |
| AACCAAAA | -0.164 ± 0.055 |
| ATTTCTAG | -0.0723 ± 0.12 |
| ACCCAGGA | -0.187 ± 0.012 |
| CCCACATA | -0.214 ± 0.08 |
| CCAGCACA | 0.0863 ± 0.081 |
| CGCTCCGC | -0.0169 ± 0.051 |
| TAGGCTAA | -0.263 ± 0.042 |
| GTAGTGAA | 0.101 ± 0.078 |
| CACGCGAA | 0.198 ± 0.032 |
| AATCTGCA | 0.0407 ± 0.015 |
| CACAAGTG | 0.367 ± 0.0037 |
| ATGATCGG | -0.215 ± 0.044 |
| ACGGTTAA | -0.0191 ± 0.0063 |

| Sequence | PBM E-score of 8-mer |
| --- | --- |
| GTGTATGA | -0.0786 ± 0.023 |
| ATCCTTTA | -0.106 ± 0.024 |
| ATTTATGA | -0.0871 ± 0.0076 |
| AGAGGTAT | -0.131 ± 0.011 |
| CGTTTGAC | 0.165 ± 0.0044 |
| AAATTATC | 0.0435 ± 0.13 |
| GACGTAAC | -0.158 ± 0.066 |
| GTGTAGGA | -0.0274 ± 0.014 |
| AGATTGAC | 0.0989 ± 0.026 |
| GAAGGATA | -0.0423 ± 0.084 |
| ACAGGCGC | 0.136 ± 0.067 |
| AGCAGAAG | -0.0915 ± 0.094 |
| TCGTATCA | 0.129 ± 0.033 |
| GAGCGCAA | -0.0576 ± 0.032 |
| GCGGGTTA | 0.0385 ± 0.009 |
| CCGCGAGA | 0.214 ± 0.0083 |
| CGAGTCAC | 0.0646 ± 0.025 |
| AGCTGTTG | 0.2441 ± 0.0021 |
| TCGAGTAA | -0.109 ± 0.064 |
| ATGAGAAG | -0.261 ± 0.0038 |
| AGGCGCCT | -0.121 ± 0.11 |
| ACGCGAGC | 0.204 ± 0.0032 |
| GAGGTCCA | -0.2525 ± 0.00076 |
| CAAACTGG | 0.102 ± 0.039 |
| AACGAATA | -0.0889 ± 0.014 |

| Sequence | PBM E-score of 8-mer |
| --- | --- |
| CACCCTCG | 0.332 ± 0.039 |
| GCAGTAGC | -0.139 ± 0.052 |
| ACGGGGAT | 0.00658 ± 0.095 |
| CTTGGGTC | -0.199 ± 0.061 |
| TTGGAAAA | -0.15 ± 0.084 |
| AGGCAATA | -0.29 ± 0.042 |
| AAGTCTGA | -0.131 ± 0.014 |
| CGAGGCCG | -0.118 ± 0.051 |
| CTAGGGAC | -0.0591 ± 0.03 |
| GTGTCTCA | 0.202 ± 0.0071 |
| CACAGAAC | -0.0434 ± 0.018 |
| CAGCCATA | -0.103 ± 0.029 |
| AGTACGAC | -0.0402 ± 0.04 |
| AGGAGAAG | -0.369 ± 0.11 |
| CTTGTCAA | 0.305 ± 0.034 |
| AATAATAT | -0.0995 ± 0.02 |
| AGCCATTC | -0.0603 ± 0.0031 |
| CCACATGG | 0.0188 ± 0.11 |
| CACGTGTA | 0.2502 ± 0.00031 |
| GACATCTA | 0.00475 ± 0.049 |
| ATCCCCAT | -0.153 ± 0.081 |
| ATGTATGC | -0.313 ± 0.036 |
| CCGTACGC | 0.0309 ± 0.032 |
| CAAGGGAG | 0.0129 ± 0.064 |
| AAGCCGGT | -0.104 ± 0.082 |

| Sequence | PBM E-score of 8-mer |
| --- | --- |
| GCGGGAGC | 0.11 ± 0.073 |
| TATTGTGA | 0.221 ± 0.021 |
| AGCTTCGC | 0.164 ± 0.041 |
| AAAGACTA | 0.0435 ± 0.0041 |
| CGTCCTAG | -0.207 ± 0.031 |
| CCCCATCA | 0.016 ± 0.033 |
| CAGCTATC | -0.0508 ± 0.023 |
| ATCTAATA | -0.137 ± 0.06 |
| CGTAGATC | -0.291 ± 0.031 |
| ACTAGACA | 0.0421 ± 0.0072 |
| AGAGGATA | -0.09 ± 0.037 |
| CCTGCCAG | 0.175 ± 0.013 |
| ACGTTCCG | -0.127 ± 0.02 |
| GTTCCGGA | -0.29 ± 0.027 |
| AGTGGTAC | -0.105 ± 0.022 |
| ATGATCCG | -0.0592 ± 0.027 |
| AAAACGAC | -0.0291 ± 0.021 |
| ATGCAGCG | -0.0556 ± 0.018 |
| AGAATAGG | -0.0332 ± 0.043 |
| GCTGTGCA | -0.0156 ± 0.043 |
| CCCCCCGC | -0.114 ± 0.13 |
| GGCAGGCC | -0.204 ± 0.077 |
| GGCCAGCA | -0.0262 ± 0.027 |
| CAAAGGTG | 0.436 ± 0.018 |
| CCATCAGC | -0.137 ± 0.0027 |

| Sequence | PBM E-score of 8-mer |
| --- | --- |
| CCCAATCC | -0.0746 ± 0.016 |
| GGAGACAA | 0.063 ± 0.03 |
| AATCCTAT | -0.119 ± 0.064 |
| CCAGGTTC | -0.015 ± 0.0087 |
| GCGACCCA | -0.109 ± 0.047 |
| CTTTCCTC | -0.122 ± 0.018 |
| CCCACAAC | 0.196 ± 0.032 |
| CGGTGGGA | -0.0368 ± 0.0018 |
| CACTCGCA | 0.318 ± 0.012 |
| AAAACTCT | -0.0344 ± 0.046 |
| ATAGGCCA | -0.33306 ± 4.2e-05 |
| AGCGTGCA | -0.00975 ± 0.023 |
| ATTCACTG | 0.00421 ± 0.029 |
| CTAATGGC | 0.092 ± 0.063 |
| GATACTGC | -0.104 ± 0.071 |
| CACCGGGG | -0.158 ± 0.01 |
| AGACGTCC | -0.187 ± 0.038 |
| ATCTGAAA | -0.135 ± 0.059 |
| CCCTGTAG | -0.302 ± 0.034 |
| GACAAGTA | 0.177 ± 0.024 |
| ACAAACCG | 0.0582 ± 0.00067 |
| CGCTCGAA | -0.13 ± 0.011 |
| AGGTCCTG | -0.0692 ± 0.1 |
| AAACCACA | 0.0722 ± 0.0013 |
| AGAGCTTC | -0.284 ± 0.026 |

| Sequence | PBM E-score of 8-mer |
| --- | --- |
| ACGAAACG | 0.16 ± 0.01 |
| TAGATAAA | -0.273 ± 0.045 |
| CACTCAAC | 0.149 ± 0.028 |
| GGTGGATA | 0.0315 ± 0.0046 |
| GACTAACC | -0.0255 ± 0.038 |
| GCTGCTTA | -0.109 ± 0.026 |
| ACATAGTG | 0.226 ± 0.0083 |
| CCGTTTTA | -0.084 ± 0.026 |
| CCAATTGG | -0.0183 ± 0.04 |
| CAACCCCC | -0.14 ± 0.066 |
| CGGCCCGA | -0.102 ± 0.04 |
| CAAGTCCA | -0.092 ± 0.041 |
| CGAATAAG | -0.0682 ± 0.055 |
| CAACACGA | 0.161 ± 0.015 |
| AACGCAAG | -0.00147 ± 0.0068 |
| GTATCGTA | 0.0426 ± 0.048 |
| ACCACGCC | 0.1061 ± 0.00038 |
| GCCTACGA | -0.122 ± 0.043 |
| TCGACCGA | -0.133 ± 0.0071 |
| AAGCAAGA | -0.023 ± 0.0061 |
| ACCATTGA | 0.0999 ± 0.094 |
| CTTATAGA | -0.0803 ± 0.038 |
| TAAGTCAA | -0.0607 ± 0.085 |
| GACAATCC | 0.106 ± 0.018 |
| ACCGGGCG | 0.0522 ± 0.0094 |

| Sequence | PBM E-score of 8-mer |
| --- | --- |
| CAATTGGA | -0.22 ± 0.066 |
| ATGGTTTC | -0.0592 ± 0.02 |
| ATGCTAGC | 0.0815 ± 0.0024 |
| AGTACTGA | -0.0156 ± 0.036 |
| CAGACCGC | -0.197 ± 0.0056 |
| ACTATCAG | 0.116 ± 0.002 |
| AATCAGTC | -0.204 ± 0.028 |
| CACATTCA | 0.181 ± 0.0026 |
| AGATCTCG | 0.00287 ± 0.029 |
| CCAAAAAC | -0.0619 ± 0.039 |
| AGATTAGA | -0.248 ± 0.023 |
| AAGTTCGT | -0.0611 ± 0.036 |
| GAGCTGCA | 0.0561 ± 0.04 |
| CCGTCATC | -0.122 ± 0.038 |
| ATGATTCA | -0.162 ± 0.029 |
| ATGACCTA | -0.182 ± 0.018 |
| CGCGCCCC | 0.186 ± 0.011 |
| ACTAATCT | -0.0659 ± 0.026 |
| ACACGATC | 0.167 ± 0.035 |
| AGGCTGGA | -0.0369 ± 0.0082 |
| CATCCGCC | -0.105 ± 0.032 |
| CTTTATAC | -0.119 ± 0.091 |
